# Measurements reported in article PMC12136788.
# The other results are listed elsewhere or left out.
# B1: chr4:95690885:95690886:+_ENSMUSG00000028572_ENSMUST00000156910|mus_mus|mus_mus_mus_hu_False|18_28 (ssRNA)
# RNA: GGGAGUUCUACAGUCCGACGAUCUUUAGAAAAUGUUAAAUACCAUGCUAAAAUAUUUUCAAAGGCUUAUUUUAUUUUACCAGAAGUCACAGGCAAGCAGACACUACAAACAUACAAAAAUACAAACCUCAACAAUAUAACUGUCAACAGAGGAUUGAGCAUCA
# B2: chr2:42509997:42509998:+_ENSG00000143924_ENST00000318522|hu_mus|hu_hu_hu_mus_True|68_68 (ssRNA)
# RNA: GGGAGUUCUACAGUCCGACGAUCUCGCUGAGUCCUCUCCUCAUAAUUAAACAGGACUACCACUGAGGCAAUGAAAUAAACUAUCUCCCCUGUGGGAAGCAGGUAUACAUUCGCUCUACAGUCCUUUCCUCGAUAACCGUAUACCAACAGAGGAUUGAGCAUCA
# B3: chr1:44156729:44156730:-_ENSMUSG00000026049_ENSMUST00000150911|mus_mus|FALSE|FALSE (ssRNA)
# RNA: GGGAGUUCUACAGUCCGACGAUCAAGGUAUUUUUAAUUUAACCUCUGUAUGACUCAUUUUCACUGUUGAAAAAUAAGCGUAAGGUGCACUACAUCUGAGAAGCAAAGGGCAUCUCUCUGAAAAGCAGAUUCUGUUGUAAAAGGCAACAGAGGAUUGAGCAUCA
# B4: chr11:29408400:29408401:+_ENSMUSG00000032740_ENSMUST00000040182|mus_mus|motif|central (ssRNA)
# RNA: GGGAGUUCUACAGUCCGACGAUCGUUAAAAACAUAAUCACUUUAUCUUGUAAAUGCUAUUUGCUGGAAAACCAUCUCACGGAAAAAAGUUUCAGAAAAAUGAUUUUAUCUUGGAUCCAUUUGUGAAUACCUAGUGCAGCUUAUCAACAGAGGAUUGAGCAUCA
# B5: 151748726_151749016_1130_CDS_ENSG00000182134_ENST00000458431|human|control|control (ssRNA)
# RNA: GGGAGUUCUACAGUCCGACGAUCCACAGUCAAGUCUUCAGGCACACUAUUCUCAUAGUGCUGGGUCAUCUCAUUGACAAGCUUAUCCAAUUGCAGGCUGCGGGAGCCAACGAUCUGGAUCCAGAAGUGGUUAGGGUGCUCAGACAACAGAGGAUUGAGCAUCA
# B6: chr11:77336104:77336105:-_ENSG00000074201_ENST00000525064|hu_mus|hu_hu_hu_mus_False|18_18 (ssRNA)
# RNA: GGGAGUUCUACAGUCCGACGAUCCUCACACAUUGCUGUGAACAUCGCCUCCAAUGCUGACUUAUCACUGGGCACAAAUCGAAAUUCAGAAAUGGGUUCAACAUCAUCAUUGUCUUCUUCCUCUUCUUCAGAGAGAGGUUCUUUCAACAGAGGAUUGAGCAUCA
# B7: chr9:104964252:104964253:+_ENSMUSG00000032563_ENSMUST00000142424|mus_hu|FALSE|FALSE (ssRNA)
# RNA: GGGAGUUCUACAGUCCGACGAUCAUCUGUUAUAUUAAAGAUUUUAACUGUCUGUUUCGGCGGCAAUCCAAGUUCCCGGUAAAAUUCCAAUAUGGAUGUAGCUUUACGAAAACGUGAUACAGUUUUUCCUCCUACAGACAGGGUCAACAGAGGAUUGAGCAUCA
# B8: chr5:21390796:21390797:-_ENSMUSG00000042453_ENSMUST00000160791|mus_mus|FALSE|FALSE (ssRNA)
# RNA: GGGAGUUCUACAGUCCGACGAUCGGUAUCUGCAUUAACUUUCUGCAUAAUACAAGUAGGUCAAAGUCCAGCAGCAAAAUAUUGCAACACAGCAAGUAGAUACAGUUUCAGUGUGUUAUACGGUAGAGAAGAAUACAUAAAGGACAACAGAGGAUUGAGCAUCA
# B9: chr18:55283160:55283161:-_ENSG00000134440_ENST00000256854|hu_hu|FALSE|FALSE (ssRNA)
# RNA: GGGAGUUCUACAGUCCGACGAUCGUUCUUCAACUGUGAUUUAGAAAUAACAUUCCACCUCUCAUUUUCUUUUUGUGAAUCUACGUAAAUGGUAGGAAAUGGUUCUUUCCCUACUGUCAUCAAAGCCUUUAGACCUGUUUUAAACAACAGAGGAUUGAGCAUCA
# B10: 3781481_3781706_810_3pUTR_ENSG00000101224_ENST00000439880|human|control|control (ssRNA)
# RNA: GGGAGUUCUACAGUCCGACGAUCAAGGCUUCCCUGCGGCUGGCCCACUCUGCCAGAGCAUGGGUGGAGCUGGGAUGUGUGGGCUUCCAUGGCAUCUUGAAGACAAAUCCAUCAUUCUCCUUGUCUUCCCCAGAGCUGCUGGCACAACAGAGGAUUGAGCAUCA
# B11: chr12:39763582:39763583:-_ENSG00000139116_ENST00000544797|hu_mus|hu_hu_hu_mus_False|78_78 (ssRNA)
# RNA: GGGAGUUCUACAGUCCGACGAUCCUCUAGGAACUGGGCAUUCACUUUGAAUUCAGGAGCAGGAAGCCCGUUUUUAAUCGCUGAGGUCUUUUUCUCAUCAAUACUCUUGAACAGGUGUCUAACAGCACGAGAGAUGAUGCCCUGCAACAGAGGAUUGAGCAUCA
# B12: chr8:41367971:41367972:+_ENSG00000147533_ENST00000520817|hu_mus|motif|central (ssRNA)
# RNA: GGGAGUUCUACAGUCCGACGAUCGCAACAUACUGUAUUAUUUCUACCAAUUUUUUCUCCUAAGUUAUACUUGUAACAAAACGGGAGUUAGGUGCUUAGGACACUUGCUUCUUCCACACCGGGCAGAGCUGGGGCAGGUGGAGCCAACAGAGGAUUGAGCAUCA
# B13: chr17:65740002:65740003:+_ENSG00000130935_ENST00000581375|hu_hu|hu_hu_hu_mus_False|18_48 (ssRNA)
# RNA: GGGAGUUCUACAGUCCGACGAUCAACAAAUCUUUCUUCCCUGGACGAACAGGAAGAUUCAUAUUAAAAAAAAUAUAUAUCCAUCAAGGAGAAUUGAGUGGCCACACCUUUACUCCCCACUUCAAUUGAGGUGGAUCUCUGAGUCAACAGAGGAUUGAGCAUCA
# B14: chr6:124997908:124997909:+_ENSMUSG00000030330_ENSMUST00000032480|mus_hu|FALSE|FALSE (ssRNA)
# RNA: GGGAGUUCUACAGUCCGACGAUCGGAACAAUCAGGGUUGUCACAGCCAAUCAUCUCUCCAUAGGAGACCUGGUGACAAAGGCAAUAGGUGGGUUCGUUGGGAUCCACAGGCAUAUCCAACACAUCAGAGGGGUGGACACUGCCCAACAGAGGAUUGAGCAUCA
# Molecular target: T1, UNK ZnF1-3 (human, UniProt Q9C0B0 31-174)
# T1 sequence: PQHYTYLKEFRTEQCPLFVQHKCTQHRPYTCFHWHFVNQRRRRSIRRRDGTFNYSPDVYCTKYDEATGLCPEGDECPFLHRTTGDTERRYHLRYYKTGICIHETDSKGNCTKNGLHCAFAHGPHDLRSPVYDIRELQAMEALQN
# Assay: nsRBNS (natural sequence RNA bind-n-seq); RBNS binding buffer (assumed for nsRBNS): 25 mM Tris pH 7.5, 150 mM KCl, 3 mM MgCl2, 0.01% Triton X-100, 500 ug/ml BSA, 20 U/ml SUPERase-In, 4 C; UNK is unkempt and MSI1 is Musashi-1; names of the RNAs are library labels; protein concentration not given here; high values mean tight binding
row,Binder,binding signal [enrichment R]
1,B1,1.86
2,B2,0.916
3,B3,1.26
4,B4,1.04
5,B5,1.14
6,B6,0.901
7,B7,1.19
8,B8,1.42
9,B9,0.405
10,B10,0.795
11,B11,1.42
12,B12,1.3
13,B13,1.33
14,B14,0.972
